Reference: PMC4336329 (PLoS ONE, 2015)
Among all 310,000 compounds or so, about 14,000 (4.5%) showed an effect of 50% or more. The effect is printed as a negative number. This is one part of the list.

What follows are compounds tested against human ether-à-go-go-related gene (hERG) potassium channel (human, UniProt Q12809) (assay: primary screen, population patch clamp on CHO cells stably expressing hERG).
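Note: peak tail current of the secondary pulse compared with the same well before compound.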

human ether-à-go-go-related gene (hERG) potassium channel, sequence (Q12809 whole entry, looked up): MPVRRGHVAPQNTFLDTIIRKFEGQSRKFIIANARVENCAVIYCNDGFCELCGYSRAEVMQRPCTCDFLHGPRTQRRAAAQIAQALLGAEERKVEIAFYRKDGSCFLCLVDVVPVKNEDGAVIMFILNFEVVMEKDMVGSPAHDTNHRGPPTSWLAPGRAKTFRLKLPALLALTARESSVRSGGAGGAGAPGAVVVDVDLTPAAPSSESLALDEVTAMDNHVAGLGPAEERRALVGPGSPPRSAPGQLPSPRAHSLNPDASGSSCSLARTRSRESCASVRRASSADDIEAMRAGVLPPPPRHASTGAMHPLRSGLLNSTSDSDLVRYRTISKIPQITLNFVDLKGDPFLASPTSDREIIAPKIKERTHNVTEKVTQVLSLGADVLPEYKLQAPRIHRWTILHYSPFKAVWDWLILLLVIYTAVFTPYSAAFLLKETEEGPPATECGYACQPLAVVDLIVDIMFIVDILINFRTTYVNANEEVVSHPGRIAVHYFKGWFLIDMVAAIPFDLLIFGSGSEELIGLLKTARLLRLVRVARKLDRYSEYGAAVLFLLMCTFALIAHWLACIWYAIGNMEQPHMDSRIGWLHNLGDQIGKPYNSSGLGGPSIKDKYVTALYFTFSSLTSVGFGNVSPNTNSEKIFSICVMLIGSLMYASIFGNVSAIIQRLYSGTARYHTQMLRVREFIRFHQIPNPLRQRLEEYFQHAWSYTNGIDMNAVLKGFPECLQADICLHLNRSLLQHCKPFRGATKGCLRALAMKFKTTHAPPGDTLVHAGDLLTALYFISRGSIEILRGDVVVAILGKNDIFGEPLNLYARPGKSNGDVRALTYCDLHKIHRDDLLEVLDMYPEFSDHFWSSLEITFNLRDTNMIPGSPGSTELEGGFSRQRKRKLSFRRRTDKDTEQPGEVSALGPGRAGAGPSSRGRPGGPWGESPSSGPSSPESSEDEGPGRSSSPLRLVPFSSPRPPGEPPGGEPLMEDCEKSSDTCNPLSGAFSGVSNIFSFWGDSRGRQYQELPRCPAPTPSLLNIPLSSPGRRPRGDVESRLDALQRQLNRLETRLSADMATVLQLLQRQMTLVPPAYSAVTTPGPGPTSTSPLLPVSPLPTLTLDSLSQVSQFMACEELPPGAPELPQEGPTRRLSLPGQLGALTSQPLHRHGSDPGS

| SMILES | hERG current change (%, negative = inhibition) at 10uM [%] |
| --- | --- |
| CC(C(=O)Nc1ccc(F)c(F)c1)N1CCN(C)CC1.O=C(O)C(=O)O (centres unmarked) | 2.42 |
| COc1ccccc1C(=O)NCc1nnc(SC(C)C(=O)Nc2nccs2)n1C (centres unmarked) | 4.08 |
| CCc1ccccc1NC(=O)C1CC(c2ccc(OC)cc2)=NO1 (centres unmarked) | 5.19 |
| CC(C)(C)OC(=O)C1C(=O)CC(C)(O)C(C(=O)OC(C)(C)C)C1c1cccnc1 (centres unmarked) | 15.3 |
| C[C@H](NC(=O)C1CC(=O)N(c2ccc3c(c2)OCO3)C1)C(=O)NC1CCCCC1 (some centres unmarked) | -13.2 |
| CC1CC(C)CN(C(=O)Cn2c(SCC(=O)N3CCc4ccccc4C3)nc3ccccc32)C1 (centres unmarked) | -8.26 |
| O=C1CCCN1CC(O)CS(=O)(=O)Cc1ccc(Cl)cc1Cl (centres unmarked) | -2.77 |
| CCC(C)/C(C)=N/NC(=O)CNS(=O)(=O)c1ccc([N+](=O)[O-])cc1 (centres unmarked) | -19.7 |
| CCOC(=O)Nc1sc(C)nc1-c1ccccc1 | -3.71 |
| CC(=O)C[C@H]1c2ccccc2S(=O)(=O)N1c1ccccc1 | 23 |
| CN(CC(=O)Nc1c(Cl)cccc1Cl)C(=O)CCC1CCCC1 | 10.6 |
| O=c1[nH]c(=S)[nH]c(O)c1N=Nc1ccc(S(=O)(=O)N2CCOCC2)cc1 | 16 |
| CS(=O)(=O)c1ccc(Sc2nc3ccccc3[nH]2)c([N+](=O)[O-])c1 | -24.9 |
| CCOC(=O)c1c(C)[nH]c(C)c1C(=O)COC(=O)/C=C/c1cccc(C(F)(F)F)c1 | 1.35 |
| Cc1nn2cc(-c3ccccc3)nc2s1 | 4.23 |
| O=C(Nc1ccc2c(c1)OCO2)c1cccc(S(=O)(=O)N2CCCC2)c1 | -15.9 |
| O=C(O)c1ccc(-c2ccc(-c3ccccc3)cc2)s1 | 15.4 |
| O=C(CCCOc1ccc(Br)cc1)NNC(=O)c1ccncc1 | -7.05 |
| O=C1CC(c2ccccc2)n2nc(N3C(=O)CCC3=O)nc2N1 (centres unmarked) | 4.14 |
| Cc1cn(-c2cc(C(=O)Nc3ccc(C)c(NC(=O)N4CCNC4=O)c3)cc(C(F)(F)F)c2)cn1 | 10.6 |
| CC(NC(=O)c1ccco1)C1CCCO1 (centres unmarked) | -12.7 |
| Cc1cc(C)nc(SCc2ccc(C(=O)N/N=C3\CC(C)CC(C)(C)C3)cc2)n1 (centres unmarked) | -16.7 |
| CCOC(=O)c1cnc(SCC(=O)Nc2nnc(CC)s2)nc1N | 8.46 |

| SMILES | hERG current change (%, negative = inhibition) at 10uM [%] |
| --- | --- |
| COCCCNS(=O)(=O)c1ccc(SC)cc1 | 3.73 |
| CCc1ccc(-c2nc(CS(=O)CC(=O)NCCN3CCCCCC3)c(C)o2)cc1 (centres unmarked) | -17.2 |
| COc1nc2ccc(C)cc2cc1-c1noc(-c2ccccc2)n1 | 1.72 |
| Cl.OCCN(CC#CC(O)(c1ccccc1)c1cccc(F)c1)CCO (centres unmarked) | 1.86 |
| COCc1cc(C)nc2sc(C(=O)NC3CCCCC3)c(N)c12 | -4.65 |
| CCC(C)c1ccc(OCCCCN2CCOCC2)cc1 (centres unmarked) | -36.8 |
| Cc1ccc(C)c(NC(=O)CNC(=O)N2CC(=O)Nc3ccccc32)c1 | 15.3 |
| COc1ccc(N2C(=O)C3CCCN3C2=O)cc1 (centres unmarked) | -10.2 |
| O=C(OCCN1CCOCC1)c1ccc(O)cc1 | 8.93 |
| CCc1ccc(-c2ccc(SCC(=O)Nc3nnc(C)s3)nn2)cc1 | 12.7 |
| O=C(COC(=O)c1ccccc1)Nc1ccc2[nH]c(=O)[nH]c2c1 | -6.15 |
| CCOc1ccc(N2C(=O)CS/C2=C(\C(Cl)=C(Cl)Cl)[N+](=O)[O-])cc1 | 2.32 |
| COc1ccc(S(=O)(=O)N2CCOC2CNC(=O)C(=O)NCCc2ccccc2OC)cc1C (centres unmarked) | -9.22 |
| O=C(CCc1ccccc1)NCCc1ccc(F)cc1 | -0.23 |
| CC1CC(OCC(O)CN2CCOCC2)CC(C)(C)C1.Cl (centres unmarked) | 1.1 |
| O=C(COC(=O)C1=COCCO1)Nc1cccc(S(=O)(=O)N2CCOCC2)c1 | 10.8 |
| O=C(Nc1ccc(N2CCOCC2)c(Cl)c1)c1ccc(Br)o1 | -31.9 |
| CCC(C(=O)Nc1ccc(S(=O)(=O)N2CCN(C)CC2)cc1)c1ccccc1 (centres unmarked) | 10.4 |
| C=CCn1c(C(C)(C)C)nc2ccccc21 | -11.2 |
| COc1ccc(OC)c(S(=O)(=O)n2nc(C)cc2C)c1 | -15.4 |
| Cc1nn(C(C)(C)C)c(OC(=O)c2ccc3c(c2)OCO3)c1Sc1ccccc1 | 8.59 |
| COc1ccc(N2C(=O)C(CC(=O)O)S/C2=N\N=C\c2cccs2)cc1 (centres unmarked) | 11.5 |
| O=C(Cn1cc(C(F)(F)F)cc(Cl)c1=O)Nc1ccc(N2CCOCC2)cc1 | 15.5 |

| SMILES | hERG current change (%, negative = inhibition) at 10uM [%] |
| --- | --- |
| COc1cc(C(=O)N/C(=C/c2ccc(F)cc2)C(=O)NC(C(=O)O)c2ccccc2)cc(OC)c1OC (centres unmarked) | 10.8 |
| CCN(CC)c1ccc2cc(S(=O)(=O)c3ccc(C)cc3)c(=O)oc2c1 | 3.25 |
| Cc1nc2c(c(=O)n1CCC(C)C)c1nc3ccccc3nc1n2CC1CCCO1 (centres unmarked) | -38.3 |
| Cc1cc(C)c(S(=O)(=O)Nc2c(C)[nH]c(=O)[nH]c2=O)c(C)c1 | 4.92 |
| CCN(CC)c1ccc(S(=O)(=O)N2CCOCC2)cc1NC(=O)CNCc1ccccc1.O=C(O)C(=O)O | -20.9 |
| Cc1cc(S(=O)(=O)NCCN(C)C)c(C)s1.Cl | 11.5 |
| CCCNC(=O)CN1C(=O)NC(c2ccccc2)(c2ccccc2)C1=O | -3.7 |
| Oc1ccc(C[C@@H]2CNCCN2CCc2cc(C(F)(F)F)cc(C(F)(F)F)c2)cc1 | -49.6 |
| CCC(=O)N1CCN(C(C)=O)C1c1ccccc1 (centres unmarked) | 11.7 |
| Cc1c(-c2ccc(Br)cc2)[n+](=O)c2c(n1[O-])CCCC2 | 15 |
| O=C(c1cc2cc(F)ccc2[nH]1)N1CCc2ccccc2C1 | 14.3 |
| Cc1cccc2cc(CN(Cc3ccc(F)cc3)C(=O)N3CCOCC3)c(=O)[nH]c12 | -14.2 |
| Cc1cc(Cl)ccc1OCCCC(=O)OCC(=O)c1c(N)n(C)c(=O)n(C)c1=O | -21.8 |
| O=C(Nc1ccccc1Cl)C1(c2ccccc2)CC1(Cl)Cl (centres unmarked) | -0.213 |
| COc1ccc(-n2c(SCC(=O)N3CCCCC3C)nnc2-c2cccnc2)cc1 (centres unmarked) | -18.5 |
| O=C(N/N=C/c1ccc(O)cc1O)c1ccncc1 | 8.11 |
| CCC(NC(=S)NC1CCCCC1)c1ccc(C)cc1 (centres unmarked) | 8.56 |
| O=C(NC(=S)NC1CCS(=O)(=O)C1)c1ccccc1Br (centres unmarked) | 16.3 |
| O=C(N/N=C/c1cc([N+](=O)[O-])ccc1Cl)c1ccc2nc[nH]c2c1 | -3.36 |
| COc1ccc(N2CCN(C(=O)CNC(=O)c3ccco3)CC2)cc1 | 7.74 |
| O=C(CN1c2cccc3cccc(c23)S1(=O)=O)NCc1ccc2c(c1)OCO2 | -18.3 |
| CC1CCN(C(=O)c2cc(-c3ccc4c(c3)OCO4)on2)CC1 | -26.7 |
| NC(=O)c1ccsc1NC(=O)COC(=O)c1ccc(Cl)cc1 | -5.38 |

| SMILES | hERG current change (%, negative = inhibition) at 10uM [%] |
| --- | --- |
| CCOC(=O)CC(=O)CSc1nc(N)c(C#N)c(-c2ccc(F)cc2)c1C#N | -0.677 |
| CCOc1ccc(NS(=O)(=O)c2ccc(OCC(=O)NCc3ccncc3)cc2)cc1 | 6.55 |
| CC(C)c1ccc(CNC(=O)C2CC(=O)N(C3CCCCC3)C2)cc1 (centres unmarked) | -6.47 |
| COc1ccc(N2C(=O)C3CCCN3C2c2cccc(OC)c2OC)cc1 (centres unmarked) | 0.464 |
| NC/C(=N\O)c1ccc(Cl)cc1Cl | 5.32 |
| Cc1ccccc1C(=O)N/N=C1\SCC(=O)N1Cc1ccco1 | 1.02 |
| COCc1cc(C)nc(N/N=C/c2ccc(-c3ccc(C(=O)O)c(Cl)c3)o2)c1C#N | 24.6 |
| CC(=O)c1ccc(NC(=O)c2ccc(S(=O)(=O)N3CCCC3)cc2)cc1 | -2.94 |
| Cc1ccc(-c2nnc(NCc3nc4ccccc4[nH]3)c3ccccc23)cc1S(=O)(=O)N1CCCCC1.Cl | -7.08 |
| Cc1cc(=O)[nH]c(N/N=C/c2c(O)n(-c3ccccc3)c(=O)c3ccccc23)n1 | 0.166 |
| c1ccc(OCc2nnnn2-c2ccccc2)cc1 | -0.317 |
| COc1ccc2[nH]c(=O)c(CN(CC3CCCO3)C(=O)Nc3ccccc3)cc2c1 (centres unmarked) | -2.72 |
| CCOC(=O)c1sc(NC(=O)c2ccccc2OCC)nc1C | -16.3 |
| COc1ccc(/C=C/C(=O)Nc2cccc(N3CCOCC3)c2)cc1OC | -3.02 |
| CCc1ccc(CN(C)C(=O)c2cc(COc3c(F)cccc3F)on2)cc1 | -2.23 |
| Cc1cc(C)c(NC(=S)NCCO)c(C)c1 | -0.436 |
| CCN(c1ccccc1)S(=O)(=O)c1ccc(Cl)c(NC(=O)CN(C)C2CCN(C)CC2)c1 | -38.8 |
| COc1ccc(-c2cnnn2-c2ccc([N+](=O)[O-])cc2)cc1 | -64.6 |
| CCOc1ccc(NC(=S)Nc2cc(C)[nH]n2)cc1 | 0.731 |
| CC1(C)CN(c2ccsc2C(=O)O)C1=O | 10.9 |
